Assay [1] concerns the target T1, KRAS G12D (Homo sapiens, UniProt P01116, G12D). The assay can be described thus: KRAS G12D Nucleotide Exchange Assay (HTRF, GDP-loaded KRAS G12D, SOS, BODIPY-GDP). As to conditions: read-out: KRASG12D Nucleotide Exchange Assay (IC50), recombinant GDP-loaded KRAS G12D (20 nM), SOS (10 nM). In general terms: Time-resolved FRET reads energy transfer from a long-lived donor to a nearby acceptor.

Assay [2] concerns the target T1, KRAS G12D. The experiment in a line: KRAS G12D RAF Disruption Assay (HTRF, GMPPNP-loaded KRAS G12D / GST-RAF1 RBD). As to conditions: read-out: KRASG12D RAF Disruption Assay (IC50), recombinant GMPPNP-loaded KRAS G12D (5 nM), GST-RAF1 RBD (9 nM).

Regarding `C#Cc1c(F)ccc2cc(O)cc(-c3ncc4c(N5CCOCCC5C)nc(OC[C@]56CCC[C@H]5N(C)CCC6)nc4c3F)c12` (single isomer, unassigned) [Example 1-142], the concentration for half-maximal inhibition (IC50) on KRAS G12D [1] came out at 10 nM.

Turning to `C#Cc1c(F)ccc2cc(O)cc(-c3ccc4c(N5CCCC(C#N)C5)nc(OC[C@@]56CCCN5C[C@H](F)C6)nc4c3F)c12` (single isomer, unassigned) [Example 2-41], the IC50 at KRAS G12D [1] came out at 20 nM.

On to `C#Cc1c(F)ccc2cc(O)cc(-c3ncc4c(N5CCOCCC5C)nc(OC[C@]56CCC[C@H]5N(C)CCC6)nc4c3F)c12` (stereo partly drawn) [Example 1-93, 4-(2-{[(4aS,7aR)-1-methyl-octahydro-1H-cyclopenta [b]pyridin-4a-yl]methoxy}-8-fluoro-4-(5-methyl-1,4-oxazepan-4-yl)pyrido[4,3-d]pyrimidin-7-yl)-5-ethynyl-6-fluoronaphthalen-2-ol], for which the IC50 at KRAS G12D [1] is 10 nM.

In the case of `C#Cc1c(F)ccc2cc(O)cc(-c3nc(OC)c4c(N5CCOC6CC65)nc(OC[C@@]56CCCN5C[C@H](F)C6)nc4c3F)c12` (stereo partly drawn) [Example 9-40, 4-(4-(2-oxa-5-azabicyclo[4.1.0]heptan-5-yl)-8-fluoro-2-(((2R,7aS)-2-fluorotetrahydro-1H-pyrrolizin-7a(5H)-yl)methoxy)-5-methoxypyrido[4,3-d]pyrimidin-7-yl)-5-ethynyl-6-fluoronaphthalen-2-ol], the IC50 at KRAS G12D [2] was 30 nM.

One may read the IC50 as the point on the concentration scale where inhibition reaches its midpoint.

(Values after US20240199584A1, “KRAS INHIBITORS” (Bristol-Myers Squibb Company, priority 2022, published 2024).)
